# Source: article PMC4336329 (PLoS ONE, 2015)
# About 2,200 (0.71%) of roughly 310,000 compounds showed an effect of 50% or more. Effects have a minus sign here. The list shows a part of the results.
# Molecular target: human ether-à-go-go-related gene (hERG) potassium channel (human, UniProt Q12809)
# Assay: primary screen, population patch clamp on CHO cells stably expressing hERG
# human ether-à-go-go-related gene (hERG) potassium channel, sequence (Q12809 whole entry, looked up): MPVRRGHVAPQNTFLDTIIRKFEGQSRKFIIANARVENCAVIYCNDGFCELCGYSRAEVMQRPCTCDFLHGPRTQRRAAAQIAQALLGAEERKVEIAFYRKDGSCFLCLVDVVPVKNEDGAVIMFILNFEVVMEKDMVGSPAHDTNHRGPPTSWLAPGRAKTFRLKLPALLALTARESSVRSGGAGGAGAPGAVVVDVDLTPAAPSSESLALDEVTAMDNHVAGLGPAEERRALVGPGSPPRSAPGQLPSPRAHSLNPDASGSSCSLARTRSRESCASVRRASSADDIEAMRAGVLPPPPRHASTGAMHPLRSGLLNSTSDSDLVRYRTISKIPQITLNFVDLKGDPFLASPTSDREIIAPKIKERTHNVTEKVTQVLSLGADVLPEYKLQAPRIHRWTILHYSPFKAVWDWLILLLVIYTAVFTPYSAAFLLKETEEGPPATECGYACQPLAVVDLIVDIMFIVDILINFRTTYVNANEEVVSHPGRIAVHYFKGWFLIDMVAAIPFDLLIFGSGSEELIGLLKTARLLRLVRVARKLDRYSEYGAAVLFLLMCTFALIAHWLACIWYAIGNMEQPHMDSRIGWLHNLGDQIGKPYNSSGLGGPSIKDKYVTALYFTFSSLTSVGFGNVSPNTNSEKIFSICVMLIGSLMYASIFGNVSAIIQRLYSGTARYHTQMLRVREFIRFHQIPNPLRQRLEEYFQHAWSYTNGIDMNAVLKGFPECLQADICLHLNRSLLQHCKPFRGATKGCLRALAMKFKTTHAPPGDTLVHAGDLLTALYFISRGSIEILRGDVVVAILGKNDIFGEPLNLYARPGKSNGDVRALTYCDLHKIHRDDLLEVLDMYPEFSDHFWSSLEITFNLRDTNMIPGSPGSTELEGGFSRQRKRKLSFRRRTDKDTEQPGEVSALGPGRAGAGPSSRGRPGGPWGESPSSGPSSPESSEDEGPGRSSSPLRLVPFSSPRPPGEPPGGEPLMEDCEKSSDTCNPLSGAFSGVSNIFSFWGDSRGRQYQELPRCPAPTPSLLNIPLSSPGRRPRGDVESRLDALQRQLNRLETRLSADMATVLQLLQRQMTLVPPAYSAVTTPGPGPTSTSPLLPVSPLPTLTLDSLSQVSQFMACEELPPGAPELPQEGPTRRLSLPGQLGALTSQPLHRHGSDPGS
row,SMILES,"hERG current change (%, negative = inhibition) at 1uM"
1,Cc1cc(C)c(C)c(S(=O)(=O)N2C(=S)NC(=O)C2CC(C)C)c1C (centres unmarked),1.8%
2,Cc1ccc(NC(=O)COc2ccc3c(c2)CCC3)nc1,7.51%
3,Cc1nn(CC(=O)Nc2cccc(S(N)(=O)=O)c2)c(C)c1[N+](=O)[O-],16.1%
4,CN(C)C(=O)C12CCC(C)(c3nc4ccccc4nc31)C2(C)C (centres unmarked),11.6%
5,Cc1ncc(CO)c(/C=N/NC(=O)c2cc(Br)ccc2O)c1O,-7.37%
6,Cl.O=C(NCCCN1CCOCC1)c1cn(-c2ccccc2)nc1-c1cccs1,-1.21%
7,Cc1nn(C)c(C)c1P(=S)(c1c(C)nn(C)c1C)N(C)C,3.81%
8,O=C(O)CCC(=O)Nc1ccccc1C(=O)Nc1ccccc1,16.4%
9,CCCCNC(=O)c1cc2c(=O)n3cccc(C)c3nc2n(CCN2CCOCC2)c1=N,-92.4%
10,CC1CN(C(=S)SCCN2Cc3ccccc3C2=O)CC(C)O1 (centres unmarked),8.87%
11,COC(=O)CN(c1ccc(Cl)cc1C)S(C)(=O)=O,20.4%
12,CC(=O)c1cc(F)c(N2CCN(C(=O)C(C)(C)C)CC2)cc1C,5.47%
13,CS(=O)(=O)c1ccc(C(=O)OCc2nnc(-c3ccc(Cl)cc3)o2)cc1[N+](=O)[O-],13.7%
14,O=C1c2ccccc2S(=O)(=O)N1CC(O)Cn1ccc2ccccc21 (centres unmarked),11.6%
15,Cc1c(Cl)c([N+](=O)[O-])nn1CCCC(=O)Nc1cccnc1,12.8%
16,O=C(N/N=C/c1cc(Br)c(Br)o1)c1cc2ccccc2o1,5.02%
17,COCCCNc1nc2ccccc2nc1NS(=O)(=O)c1cccc(C)c1,16.7%
18,N#C/C=C1/NC(=O)c2ccccc2S1,6.73%
19,Cc1cc(C(=O)N2CCN(S(=O)(=O)c3ccccc3F)CC2)c(C)o1,11.8%

row,SMILES,"hERG current change (%, negative = inhibition) at 1uM"
1,C=CCOC(=O)C1=C[C@@H](c2coc3ccccc3c2=O)[C@H](CCCO)[C@@H](OCC)O1,1.09%
2,CC(C)(C)C1CCC(=O)N(CCC#N)CC1 (centres unmarked),14%
3,C=CCn1c(SCC(O)Cn2c3ccccc3c3ccccc32)nnc1-c1ccco1 (centres unmarked),13.9%
4,CCOc1ccc(S(=O)(=O)N2CCN(C(=O)c3cccnc3)CC2)cc1,-11.5%
5,O=[N+]([O-])c1ccc(O)c(/C=N/n2cnc3ccccc32)c1,16.6%
6,Nc1ccc2nc(SCC(=O)Nc3ccc(N4CCOCC4)c(Cl)c3)sc2c1,11.5%
7,CCCn1c(COc2ccccc2OC)nc2ccccc21,1.65%
8,CCN(CC)S(=O)(=O)c1ccc2[nH]c(=O)cc(C(=O)NCC3CCCO3)c2c1 (centres unmarked),3.25%
9,CCOc1ccc(CCNC(=O)CCc2nc(-c3ccc(C)cc3)no2)cc1OCC,1.83%
10,CCc1ccc(C2=NN(CCC(=O)NC3CCCCCC3)C(=O)CC2)cc1,8.39%
11,O=C(CSc1nc2ccccc2c(=O)n1Cc1ccc(Cl)cc1)NCc1cccs1,-13.4%
12,NC1=NC(c2ccc(F)cc2)n2c(nc3ccccc32)N1 (centres unmarked),14%
13,COc1ccc(CN2CCNC(=O)C2CC(=O)NCCc2c[nH]c3ccccc23)c(OC)c1 (centres unmarked),18.1%
14,Cc1ccc(NC(=O)Cn2nnc3ccccc3c2=O)cc1,13.3%
15,Cc1cc(NS(=O)(=O)N(C)C)ccc1C(C)C,13.2%
16,COc1cc(CN2CCc3ccc(NC(=O)CCc4ccccc4OC)cc3C2)ccc1O,-2.31%
17,CCOC(=O)c1oc2ccc3c(c2c1C)C(=O)CC1(CCN(C(=O)OCC)CC1)O3,11.2%
18,Cn1cccc1CC(=O)NNC(=O)Nc1ccc(F)cc1,1.55%
19,Cc1cc(C(=O)OCC(=O)c2cccs2)c2ccccc2n1,18.2%

row,SMILES,"hERG current change (%, negative = inhibition) at 1uM"
1,Cc1nn(C)c(C)c1NC(=S)Nc1ccc(S(=O)(=O)Nc2ncccn2)cc1,-3.62%
2,Cc1cc(C(=O)Nc2cc(C)n(Cc3ccc(Cl)cc3)n2)no1,-0.697%
3,CC(C)CN1C(=O)C(=O)N(CC(=O)N2CCN(c3ccccc3)CC2)C1=O,-3.82%
4,Cc1ccc(NC(=O)CSc2nnc(CSc3nc(C)cc(C)n3)n2Cc2ccco2)c(C)c1,-15.8%
5,COCC(C)NC(=O)c1cc(OC)cc(OC)c1 (centres unmarked),13.7%
6,Cc1cc(C)cc(Oc2nc3ccccn3c(=O)c2/C=C(\C#N)C(=O)NC2CCS(=O)(=O)C2)c1 (centres unmarked),13.1%
7,O=C(NCc1ccc2c(c1)OCO2)c1ccc(CS(=O)Cc2cccc(Cl)c2)o1 (centres unmarked),11.8%
8,CC1C/C(=N\NC(=O)CCc2ccc(S(=O)(=O)N3CCOCC3)cc2)CC(C)(C)C1 (centres unmarked),12.2%
9,O=C(CCNS(=O)(=O)c1ccc(Br)cc1)NCc1ccco1,-15.1%
10,COc1ccc(-c2nc(CS(=O)CC(=O)NC(C)CCc3ccccc3)c(C)o2)cc1OC (centres unmarked),3.26%
11,CCOC(=O)c1c(N)c2cc([N+](=O)[O-])cnc2n1C,13.7%
12,CC(=O)N1c2ccc(S(=O)(=O)NCC3CCC(C(=O)NCc4ccc(C)cc4)CC3)cc2CC1C (centres unmarked),13%
13,Cc1ccccc1-n1c(SCC(=O)N2CCC(C(=O)O)CC2)nnc1-c1ccncc1,19.5%
14,COCCNC(=O)Cn1cc2c(n1)CCCCC2,7.41%
15,CCOC(=O)N1CCN(c2ccc3nnnn3n2)CC1,-5.84%
16,O=C(Nc1cccc(-c2ccc(N3CCOCC3)nn2)c1)c1ccccc1,-0.908%
17,Cn1nccc1C(=O)Nc1cccc(S(=O)(=O)N2CCOCC2)c1,17.5%
18,O=C(c1ccccc1Cl)N1CCSCC1,13.5%
